Values joined by “and” are separate entries in the source; they are usually repeats but may differ in a detail not shown here. Identical values can stand only once. The name of at least one read-out is uncertain.
Key:
Aldose Reductase = biological target: T1, Aldose Reductase (Bos taurus, UniProt P16116); assay: Inhibition of aldose reductase in vitro (enzyme from beef eye lenses, glyceraldehyde substrate); type: biochemical; conditions: in DMF solution
T1 construct: The enzyme is extracted from beef eye lenses; from tissue; host or cells: beef eye lenses
From the text: Inhibition of Aldose Reductase In Vitro
The reoxidation of NADPH coupled to the enzymatic reaction was followed spectrophotometrically at 340 nm.

COMT = biological target: T2, COMT (Rattus norvegicus, UniProt P22734); assay: Inhibition of COMT in vitro (enzyme from rat liver, 4-nitrocatechol substrate); type: biochemical; conditions: in dimethylsulfoxide solution
T2 construct: The enzyme is extracted from rat liver; from tissue; host or cells: rat liver
T2 sequence (P22734 1-221 isoform P22734-2): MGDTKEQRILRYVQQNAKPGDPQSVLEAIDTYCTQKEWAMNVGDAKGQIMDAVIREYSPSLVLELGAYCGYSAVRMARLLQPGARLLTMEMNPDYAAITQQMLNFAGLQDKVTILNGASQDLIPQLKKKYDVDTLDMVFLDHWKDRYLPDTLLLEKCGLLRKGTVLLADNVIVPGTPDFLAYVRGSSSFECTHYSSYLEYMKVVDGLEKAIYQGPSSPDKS
Protocol: Inhibition of COMT in vitro The enzyme is extracted from rat liver by the method described by Axelrod et al, J. Biol. Chem., 233, 702(1958); its activity is measured in the presence of S-adenosyl methionine and using as substrate 4-nitrocatechol by the method described by Lee et al, J. Pharm. Sci., 66(7), 986(1977). The quantity of 4-nitrocatechol consumed was determined spectrophotometrically at 520 nm in alkaline medium.

SMILES	percentages of inhibition (aldose reductase) (Aldose Reductase; 5.10^-5 mole/l)	percentages of inhibition (aldose reductase) (Aldose Reductase; 5.10^-6 mole/l)	percentages of inhibition (aldose reductase) (Aldose Reductase; 5.10^-7 mole/l)	percentages of inhibition (COMT) (COMT; 5.10^-5 mole/l)	further results
C[C@@H]1O[C@@H](O[C@H]2[C@H](Oc3cc(O)c4c(c3)O[C@H](c3ccc(O)cc3)CC4=O)O[C@H](CO)[C@@H](O)[C@@H]2O)[C@H](O)[C@H](O)[C@H]1O [Naringin, reference compound]	8%				
C[C@@H]1O[C@@H](OC[C@H]2O[C@@H](Oc3c(-c4ccc(O)c(O)c4)oc4cc(O)cc(O)c4c3=O)[C@H](O)[C@@H](O)[C@@H]2O)[C@@H]2OC(C)(C)O[C@@H]2[C@H]1O [No. 1, 3-O-(2,3-O,O-isopropylidene-6-α-L-rhamnosyl-β-D-glucosyl)-quercetin]	69%	13%			
C[C@@H]1O[C@@H](Oc2c(-c3ccc(O)c(O)c3)oc3cc(O)cc(O)c3c2=O)[C@@H]2OC(C)(C)O[C@@H]2[C@H]1O [No. 3, 3-O-(2,3-O,O-isopropylidene-α-L-rhamnosyl)-quercetin]	96%		74%		
CC1(C)OC[C@H]2O[C@@H](Oc3c(-c4ccc(O)c(O)c4)oc4cc(O)cc(O)c4c3=O)[C@H](O)[C@@H](O)[C@@H]2O1 [No. 5, 3-O-(4,6-O,O-isopropylidene-β-D-glucosyl)-quercetin]		33%			
C[C@@H]1O[C@@H](O[C@H]2[C@H](Oc3cc(O)c4c(c3)OC(c3ccc(O)cc3)CC4=O)O[C@H](CO)[C@@H](O)[C@@H]2O)[C@@H]2OC(C)(C)O[C@@H]2[C@H]1O (stereo partly drawn) [No. 8, 7-O-(2,3-O,O-isopropylidene-2-α-L-rhamnosyl-β-D-glucosyl)-naringenin]	19%				
C[C@@H]1O[C@@H](Oc2c(-c3cc(O)c(O)c(O)c3)oc3cc(O)cc(O)c3c2=O)[C@@H]2OC(C)(C)O[C@@H]2[C@H]1O [No. 14, 3-O-(2,3-O,O-isopropylidene-α-L-rhamnosyl)myricitin]	100%	33%	0%		
CC1(C)OC[C@H]2O[C@@H](Oc3cc4ccc(=O)oc4cc3O)[C@H](O)[C@@H](O)[C@@H]2O1 [No. 15, 6-O-(4,6-O,O-isopropylidene-β-D-glucosyl) esculetol]	44%				
O=c1ccc2cc(O[C@@H]3O[C@@H]4COC5(CCCCC5)O[C@H]4[C@H](O)[C@H]3O)c(O)cc2o1 [No. 16, 6-O-(4,6-O,O-cyclohexylidene-β-D-glucosyl) esculetol]	50%				
COc1ccc(C2O[C@@H]3[C@@H](O)[C@H](C)O[C@@H](OC[C@H]4O[C@@H](Oc5c(-c6ccc(O)c(O)c6)oc6cc(O)cc(O)c6c5=O)[C@H](O)[C@@H](O)[C@@H]4O)[C@@H]3O2)cc1 (stereo partly drawn) [No. 22, 3-O-(2,3-O,O-p-methoxybenzylidene-6-α-L-rhamnosyl-β-D-glucosyl)quercetin]	89%	43%		87%	percentages of inhibition (COMT) (COMT; 5.10^-6 mole/l): 25%
O=c1ccc2cc(O[C@@H]3O[C@@H]4COC(c5ccc(O)c(O)c5)O[C@H]4[C@H](O)[C@H]3O)c(O)cc2o1 (stereo partly drawn) [No. 24, 6-O-(4,6-O,O-(3,4-dihydroxybenzylidene)-β-D-glucosyl) esculetol]	62%				
C[C@@H]1O[C@@H](OC[C@H]2O[C@@H](Oc3c(-c4ccc(O)c(O)c4)oc4cc(O)cc(O)c4c3=O)[C@H](O)[C@@H](O)[C@@H]2O)[C@H](O)[C@H](O)[C@H]1O [Rutin, rutin, reference compound]				47%	percentages of inhibition (aldose reductase) (Aldose Reductase; 10^-4 mole/l): 48% and 86% and 72% and 75%

More lines, main results first:

percentages of inhibition (aldose reductase) (Aldose Reductase; 5.10^-5 mole/l)	percentages of inhibition (aldose reductase) (Aldose Reductase; 5.10^-6 mole/l)	percentages of inhibition (aldose reductase) (Aldose Reductase; 5.10^-7 mole/l)	percentages of inhibition (COMT) (COMT; 5.10^-5 mole/l)	SMILES	further results
17%				CC1(C)O[C@@H]2[C@@H](O)[C@H](OC[C@H]3O[C@@H](Oc4c(-c5ccc(O)c(O)c5)oc5cc(O)cc(O)c5c4=O)[C@H](O)[C@@H](O)[C@@H]3O)OC[C@@H]2O1 [No. 4, 3-O-(3,4-O,O-isopropylidene-6-α-L-arabinosyl-β-D-glucosyl)-quercetin]	
86%	50%			C[C@@H]1O[C@@H](OC[C@H]2O[C@@H](Oc3c(-c4ccc(O)c(O)c4)oc4cc(O)cc(O)c4c3=O)[C@H](O)[C@@H](O)[C@@H]2O)[C@@H]2OC3(CCCCC3)O[C@@H]2[C@H]1O [No. 6, 3-O-(2,3-O,O-cyclohexylidene-6-α-L-rhamnosyl-β-D-glucosyl)-quercitin]	
70%	12%		54%	C[C@@H]1O[C@@H](OC[C@H]2O[C@@H](Oc3c(-c4ccc(O)c(O)c4)oc4cc(O)cc(O)c4c3=O)[C@H](O)[C@@H](O)[C@@H]2O)[C@@H]2OC(c3ccc(O)cc3)O[C@@H]2[C@H]1O (stereo partly drawn) [No. 23, 3-O-(2,3-O,O-p-hydroxybenzylidene-6-α-L-rhamnosyl-β-D-glucosyl)quercetin]	percentages of inhibition (COMT) (COMT; 5.10^-6 mole/l): 27%
	44%			C[C@@H]1O[C@@H](OC[C@H]2O[C@@H](Oc3c(-c4ccc(O)c(O)c4)oc4cc(O)cc(O)c4c3=O)[C@H](O)[C@@H](O)[C@@H]2O)[C@@H]2OC3(CCC4CCCCC4C3)O[C@@H]2[C@H]1O (stereo partly drawn) [No. 28, 3-O-(2,3-O,O-(2-perhydronaphthylidene)-6-α-L-rhamnosyl-β-D-glucosyl) quercetin]	
	82%	33%	53%	C[C@@H]1O[C@@H](OC[C@H]2O[C@@H](Oc3c(-c4ccc(O)c(O)c4)oc4cc(O)cc(O)c4c3=O)[C@H](O)[C@@H](O)[C@@H]2O)[C@@H]2OC3(O[C@@H]2[C@H]1O)C1CC2CC(C1)CC3C2 (stereo partly drawn) [No. 33, 3-O-(2,3-O,O-adamantylidene-6-α-L-rhamnosyl-β-D-glucosyl)quercetin]	
		17%	69%	Cc1ccc(C2(C)O[C@@H]3[C@@H](O)[C@H](C)O[C@@H](OC[C@H]4O[C@@H](Oc5c(-c6ccc(O)c(O)c6)oc6cc(O)cc(O)c6c5=O)[C@H](O)[C@@H](O)[C@@H]4O)[C@@H]3O2)cc1 (stereo partly drawn) [No. 35, 3-O-(2,3-O,O-(α-methyl-p-methylbenzylidene)-6-α-L-rhamnosyl-β-D-glucosyl) quercetin]	percentages of inhibition (COMT) (COMT; 5.10^-6 mole/l): 55%
		13%	58-58%	COc1ccc(C2(C)O[C@@H]3[C@@H](O)[C@H](C)O[C@@H](OC[C@H]4O[C@@H](Oc5c(-c6ccc(O)c(O)c6)oc6cc(O)cc(O)c6c5=O)[C@H](O)[C@@H](O)[C@@H]4O)[C@@H]3O2)cc1 (stereo partly drawn) [No. 36, 3-O-(2,3-O,O-(α-methyl-p-methoxybenzylidene)-6-α-L-rhamnosyl-β-D-glucosyl) quercetin]	
		4%		C[C@@H]1O[C@@H](OC[C@H]2O[C@@H](Oc3c(-c4ccc(O)c(O)c4)oc4cc(O)cc(O)c4c3=O)[C@H](O)[C@@H](O)[C@@H]2O)[C@@H]2OC(C)(c3ccc(Cl)cc3)O[C@@H]2[C@H]1O (stereo partly drawn) [No. 37, 3-O-(2,3-O,O-(α-methyl-p-chlorobenzylidene)-6-α-L-rhamnosyl-β-D-glucosyl) quercetin]	
